# Experimental data reported in the supplement of paper PMC4604168 (melanoma cell lines).
# Some of the results follow. Most values come without repeats; read them as rough.
# Tests used:
# Assay in all cases: cell count relative to DMSO control; melanoma cells; higher = more viable cells
# Details in all cases: library dose: standard library concentration; 72 h
# [1] = tested on: G361
# [2] = tested on: IPC-298
# [3] = tested on: IST-MEL1
# [4] = tested on: LB2518-MEL
# [5] = tested on: LOXIMVI
# [6] = tested on: MEL-HO
# [7] = tested on: MZ2-MEL
# [8] = tested on: MeWo
# [9] = tested on: RPMI7951
# [10] = tested on: RVH-421
# [11] = tested on: SkMel28
# [12] = tested on: SkMel2
# [13] = tested on: SkMel30
# [14] = tested on: SkMel5
# [15] = tested on: UACC257
# [16] = tested on: UACC62
# [17] = tested on: WM115
# [18] = tested on: WM1716
# [19] = tested on: WM1745
# [20] = tested on: WM3526
# 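Further: cells treated in 1,536-well plates, then fixed and DAPI-stained, with nuclei counted from automated high-throughput microscope images.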
SMILES,cell count [1],cell count [2],cell count [3],cell count [4],cell count [5],cell count [6],cell count [7],cell count [8],cell count [9],cell count [10],cell count [11],cell count [12],cell count [13],cell count [14],cell count [15],cell count [16],cell count [17],cell count [18],cell count [19],cell count [20]
"CC(=O)O[C@@]12CO[C@@H]1C[C@H](O)[C@@]1(C)C(=O)[C@H](O)C3=C(C)[C@@H](OC(=O)[C@H](O)[C@@H](NC(=O)OC(C)(C)C)c4ccccc4)C[C@@](O)([C@@H](OC(=O)c4ccccc4)[C@H]21)C3(C)C [Docetaxel] + Clc1ccc(Nc2nnc(Cc3ccncc3)c3ccccc23)cc1 [vatalanib] (first compound 0.0005 µM, partner dose 10 µM)",17.4%,31%,50.8%,48.9%,57.2%,47.1%,45.2%,28.1%,23.4%,52%,26.5%,21.2%,56.9%,38.9%,70.2%,50.9%,51.1%,43.6%,21.1%,50.7%
"CC(=O)O[C@@]12CO[C@@H]1C[C@H](O)[C@@]1(C)C(=O)[C@H](O)C3=C(C)[C@@H](OC(=O)[C@H](O)[C@@H](NC(=O)OC(C)(C)C)c4ccccc4)C[C@@](O)([C@@H](OC(=O)c4ccccc4)[C@H]21)C3(C)C [Docetaxel] + C[C@@H](Oc1cc(-c2cnn(C3CCNCC3)c2)cnc1N)c1c(Cl)ccc(F)c1Cl [Crizotinib] (first compound 0.0005 µM, partner dose 1 µM)",19%,42.3%,33.3%,45.5%,87%,45.3%,46.5%,31.6%,40.5%,48.7%,26.7%,29.9%,63%,33.1%,71.4%,57.7%,42.9%,35.4%,43%,41.8%
"Nc1nc(F)nc2c1ncn2[C@@H]1O[C@H](CO)[C@@H](O)[C@@H]1O [fludarabine] + Cc1nc(Nc2ncc(C(=O)Nc3c(C)cccc3Cl)s2)cc(N2CCN(CCO)CC2)n1 [dasatanib] (first compound 1 µM, partner dose 0.02 µM)",70.1%,68.5%,64.1%,67.3%,20.8%,61.6%,66.6%,72%,30%,74.4%,0.617%,0.291%,9.66%,17.8%,29.4%,71.3%,70.3%,74.9%,55%,18.8%
"CO[C@H]1C[C@@H]2CC[C@@H](C)[C@@](O)(O2)C(=O)C(=O)N2CCCC[C@H]2C(=O)O[C@H]([C@H](C)C[C@@H]2CC[C@@H](OCCO)[C@H](OC)C2)CC(=O)[C@H](C)/C=C(\C)[C@@H](O)[C@@H](OC)C(=O)[C@H](C)C[C@H](C)/C=C/C=C/C=C/1C [everolimus] + O=C(O)c1ccc2c(c1)nc(Nc1cccc(Cl)c1)c1ccncc12 [CX4945] (first compound 0.1 µM, partner dose 2 µM)",49.6%,55.8%,64.3%,77.6%,29.6%,39.7%,46.1%,73.4%,59.7%,57.4%,40.7%,57%,67.8%,64.5%,85%,83.3%,74.8%,90%,83.1%,70.1%
"CO[C@H]1C[C@@H]2CC[C@@H](C)[C@@](O)(O2)C(=O)C(=O)N2CCCC[C@H]2C(=O)O[C@H]([C@H](C)C[C@@H]2CC[C@@H](OCCO)[C@H](OC)C2)CC(=O)[C@H](C)/C=C(\C)[C@@H](O)[C@@H](OC)C(=O)[C@H](C)C[C@H](C)/C=C/C=C/C=C/1C [everolimus] + Cn1c(Nc2ccc(C(F)(F)F)cc2)nc2cc(Oc3ccnc(-c4ncc(C(F)(F)F)[nH]4)c3)ccc21 [CHIR265] (first compound 0.1 µM, partner dose 0.4 µM)",11.5%,38%,46.9%,18.9%,80.5%,47.1%,36.1%,41%,42.8%,40.6%,20.7%,30.3%,52.6%,34.5%,71.2%,40.8%,25.7%,47.1%,53%,37.8%
"Nc1ncn([C@H]2C[C@H](O)[C@@H](CO)O2)c(=O)n1 [decitabine] + C=CCn1c(=O)c2cnc(Nc3ccc(N4CCN(C)CC4)cc3)nc2n1-c1cccc(C(C)(C)O)n1 [MK1775] (first compound 0.5 µM, partner dose 0.1 µM)",60.5%,55.4%,77%,54%,71.6%,66%,92.4%,63.1%,43.5%,51.4%,40%,74.7%,80.4%,46.6%,81.7%,56.4%,62%,62.9%,41.2%,67%
"CO[C@H]1C[C@@H]2CC[C@@H](C)[C@@](O)(O2)C(=O)C(=O)N2CCCC[C@H]2C(=O)O[C@H]([C@H](C)C[C@@H]2CC[C@@H](OCCO)[C@H](OC)C2)CC(=O)[C@H](C)/C=C(\C)[C@@H](O)[C@@H](OC)C(=O)[C@H](C)C[C@H](C)/C=C/C=C/C=C/1C [everolimus] + CS(=O)(=O)CCNCc1ccc(-c2ccc3ncnc(Nc4ccc(OCc5cccc(F)c5)c(Cl)c4)c3c2)o1 [lapatinib] (first compound 0.1 µM, partner dose 4 µM)",33.2%,66.6%,82.6%,68.1%,58%,69.1%,55.4%,65.2%,69.9%,83.6%,38.4%,60.8%,58.9%,46.1%,103%,66%,52.1%,72.8%,83.1%,63%
"Nc1ncn([C@H]2C[C@H](O)[C@@H](CO)O2)c(=O)n1 [decitabine] + NC(=O)Nc1cc(-c2cccc(F)c2)sc1C(=O)N[C@H]1CCCNC1 [AZD7762] (first compound 0.5 µM, partner dose 0.1 µM)",84%,73.9%,74.4%,74%,84.4%,63.4%,86.5%,60.6%,26.1%,102%,52.8%,119%,71.3%,67.4%,94.9%,53.8%,58.1%,64.8%,70.4%,50%
